Laboratory results: publication PMC3698097
Positions count from the first letter of the chain named. No constants are given. Whether binding was seen depends on the method and setting. In cells and extracts the contact can be indirect. Some entries that bind do so weakly or less than the wild type. Sequences can lack the tags named with a protein.

Tests used:
[1] = biological target: T1, Apm1-GST (full-length Apm1 fused to GST) (Schizosaccharomyces pombe) (UniProt Q9HFE5); experiment: pull-down; Apm1-GST expressed in wild-type cells (and in sip1-i4 cells with Sip1ΔN expressed from the nmt1 promoter, where binding was significantly rescued); lysates of cells expressing GFP-Rho3 incubated with purified full-length Apm1-GST; glutathione beads, SDS-PAGE; only the target purified
T1 sequence: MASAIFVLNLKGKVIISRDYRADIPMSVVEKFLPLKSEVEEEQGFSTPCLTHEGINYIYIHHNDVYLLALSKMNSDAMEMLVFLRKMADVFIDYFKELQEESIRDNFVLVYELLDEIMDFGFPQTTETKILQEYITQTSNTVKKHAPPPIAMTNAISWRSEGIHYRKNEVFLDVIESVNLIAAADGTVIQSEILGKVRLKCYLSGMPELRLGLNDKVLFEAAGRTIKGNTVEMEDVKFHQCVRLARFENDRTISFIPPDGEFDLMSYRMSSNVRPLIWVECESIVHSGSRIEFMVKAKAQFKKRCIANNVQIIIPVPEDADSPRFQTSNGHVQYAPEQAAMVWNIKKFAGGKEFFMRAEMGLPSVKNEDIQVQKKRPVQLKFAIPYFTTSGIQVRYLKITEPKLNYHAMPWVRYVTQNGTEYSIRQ

[2] = biological target: GST-Sip1 (full-length Sip1 fused to GST) (Schizosaccharomyces pombe) (UniProt O42998); experiment: pull-down; purified GST fusion protein (or GST) from S. pombe, nmt1 promoter, incubated with lysates of S. pombe cells expressing GFP-fused proteins; precipitated with glutathione beads, washed extensively, SDS-PAGE, immunoblot with anti-GFP or anti-GST antibodies; only the target purified
[3] = biological target: T2, Sip1ΔN-GST (C-terminal region of Sip1 lacking the N-terminal 1414 amino acids, fused to GST) (Schizosaccharomyces pombe) (UniProt O42998); experiment: as above
T2 sequence: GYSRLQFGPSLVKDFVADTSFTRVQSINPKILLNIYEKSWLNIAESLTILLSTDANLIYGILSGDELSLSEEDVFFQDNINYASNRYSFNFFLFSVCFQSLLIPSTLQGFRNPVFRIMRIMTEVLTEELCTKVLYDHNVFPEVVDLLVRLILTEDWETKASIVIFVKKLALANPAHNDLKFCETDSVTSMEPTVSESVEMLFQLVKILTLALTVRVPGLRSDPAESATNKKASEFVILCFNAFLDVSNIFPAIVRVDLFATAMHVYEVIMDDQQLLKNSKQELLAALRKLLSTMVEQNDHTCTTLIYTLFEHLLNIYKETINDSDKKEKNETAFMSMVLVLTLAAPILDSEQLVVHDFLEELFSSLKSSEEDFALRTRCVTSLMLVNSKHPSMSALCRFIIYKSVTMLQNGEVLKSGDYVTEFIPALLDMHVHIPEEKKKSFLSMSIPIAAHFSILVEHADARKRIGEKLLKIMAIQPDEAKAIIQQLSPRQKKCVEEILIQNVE

[4] = biological target: T1, Apm1-GST (full-length Apm1 fused to GST) (Schizosaccharomyces pombe); experiment: as above

B1: GFP-Rho3 (wild-type Rho3 fused to GFP) (protein, UniProt O13928 1-205)
chain: MSSCFGSKKKPIYRKIVILGDGAAGKTSLLNVFTKGYFPQVYEPTIFENYIHDIFVDGNSIELSLWDTAGQEEYDQLRSLSYSDTHVIMICFAVDSRDSLENVITKWLPEVSSNCPGVKLVLVALKCDLRGADEEQVDHSKIIDYEEGLAAAKKINAVRYLECSAKLNRGVNEAFTEAARVALAAQPRGTKDGADESHGTGCIIA
How did the binding [1] turn out when B1 was run?
Its binding is “binds”.

And the binding [2]?
The binding was “binds”.

What about the binding [3] of the same binder?
The binding was “binds”.

B2: Apl2 fused to GFP (subunit of the AP-1 complex) (protein, UniProt O43079 1-683)
chain: MVPKLFQSSRFKAFKKSETSELQKGLVSQYAYERIDAVKRTIAAMTVGKDVSSLFPDVLKNLATRDITLKKLVYLYLINYAKTHPDLCILAVNTFVKDSEEYNPTLRALAIRTMGCIRVNKIIGYLADPLRKALKDEHPYVRKAAAVCVVKMYDLDREYCASNGFIEQLQALVSDPNPVVVANAVRSLAEIHDQDPEKGYFNVVYTMTDRLMVALSECNEWGRITILNSLARFRTSDIKEAEYVCERVVPQFQHANSGVVLSAVKVIMVHIPLFSSDFTDFLYKKMAPPLLTLLSTDSEIQYVALRNINLILQKRPSIFDVKTRVFFCKYNDPLYIKMEKLKIITMLACDENINETISELRAYVSEVELEFVKQTIKCLGDVALKVPSVINDCISIFLEIYELNISYMVQEVTVVMETVLRKYPQKIDLLLPYLSRVIEELGDPRARSSMAWILGEFSHVIPTSSKLLSEMISTMADEDLQIQLALLTAVVKLSLMNGKGNDEELVQKVLNYAINQSSNQDLRDRAFAYQRLLTPENVRKAQKIVCCEKPSVSYNNNLPEALLDALLCEITTLASVYHKLPESFIGQGKFGADAIQRRAVEELNIEEANVHEAIEKGANVENLLDLDFTDPGATSASDSPITSAQPQSGSNSAMDLFMAFEAPSTNNAEPVKARSATDDLLGL
B2 was tested. Which binding [3] did it give?
The binding was “binds”.

B3: Apl4 fused to GFP (subunit of the AP-1 complex) (protein, UniProt Q9UU81 1-836)
chain: MSSLKSFIKAVRASKTTAEEHTTILKESAQIRKNIRQGSNDMRMRRKNVAKLLYLFLLGEPTHFGQIECLKLLSSSRFMDKRLGYLAAMLLLDENQEVLTLLTNSLQNDLKSRDKFIVGLALSAFGNVAGPELARDLSNDIAELCSNHHNYISKKAVLCALRVIQKEPDLESLYIEKTDELLHSKSHGVLMAALAFAISACKINPSLISRFESQADDLIYRIRQLSTSTYSSEHNIGNISDPFLQVKILQFLSILGQNNPKIYDKMSDLLAQVCTNTDSSRNAGNAILYQAVRTILDLNSDSSLRVLGVNILAKFLGNRDNNTRYVALNMLKLVVNSEENAVQRHRSTILACLNDVDSSIQSRALELSTFLVNEANVRFMVRELLSFLDNVSDELRGSTAQYITEVTNAFAPNKRWHFDTLLRVFKSAGNFVSESTLSTFLRLIASAPELHEYAVVKLYAALKEDVSQEALTLSAFWVIGEYGQMLLSPTMNFDDDQTLPHSVSESDIVDIIEEVFNSVEASRYIIVQYGLFALTKLSARLGSSSTASRIDKIIYSYKRNKNTEVQQRSVEFHLILNDSKLSKTILEPTPAPLPPPRTTPYQNAEQKLKANKHVEKRVQESNELLDLIGLTTPSVAEPLETPVDEMTQSPQSSLSRAPSTSKKSHFEDILGLFASPAPSAQPVDSLASSFASLDFNASASQPSNNLSLLSSIPSTSKSYPPIVVFDKHDVTLTLVPSKEESTKTAVIEAKFKNKNPMTRVEKIHLEVAVPKSQKLKIQPLRTTSMEPGGETSQTLRVHGPSGSQVKLRLRISVVRQGGSNTLDQVDFGKLPSDLLQ
With B3 as the binder, how does the binding [3] read?
The binding was “binds”.

B4: Aps1 fused to GFP (subunit of the AP-1 complex) (protein, UniProt Q9P7N2 1-162)
chain: MSIKFFLLVSRQGKVRLAKWFNTLSIKERAKIIRDVSSLVITRKPKMCNFVEYKGEKIVYRRYASLFFVCGIEQDDNELIILEVIHKFVECLDKYFGNVCELDLIFNFEKAYYVMEELLLAGELQESSKTNVLSAVLAGDAESEADAQQDSLQKLVGSVKKR
B4 was tested. Which binding [3] did it give?
Its binding is “binds”.

B5: GFP-Rho3G22V (GTP-locked variant of Rho3 fused to GFP) (protein, UniProt O13928 1-205)
chain: B1 chain with G22V
How did the binding [2] turn out when B5 was run?
Its binding is “binds”.

What about the binding [3] of the same binder?
Its binding is “binds”.

B6: GFP-Rho3T27N (GDP-locked variant of Rho3 fused to GFP) (protein, UniProt O13928 1-205)
chain: B1 chain with T27N
Which results are given for B6?
binding [2]: binds; binding [3]: binds

B7: GFP-Rho3E48V (effector domain mutant of Rho3 fused to GFP) (protein, UniProt O13928 1-205)
chain: B1 chain with E48V
What does the source list for B7?
binding [2]: binds; binding [3]: binds

B8: Apm1 fused to GFP (subunit of the AP-1 complex) (protein, UniProt Q9HFE5 1-426)
chain: T1 sequence
With B8 as the binder, how does the binding [3] read?
The binding was “binds”.

B9: GFP-Rho2 (GFP-fused Rho2) (protein, UniProt Q10133 1-200)
chain: MLQSQPIRRKLVVVGDGACGKTSLLSVFTLGYFPTEYVPTVFENYVSDCRVDGKSVQLALWDTAGQEEYERLRPMSYAKAHIILVGFAIDSPDSLENVSTKWIEEINTLCPNVPFILVGMKADLRSDPVAIEEMRRRNQNFVKSQQAELVAQRIGARKYMECSSLTGDGVDDVFEAATRAALTVRDSENDKSSTKCCIIS
How did the binding [2] turn out when B9 was run?
Its binding is “no binding”.

And the binding [3]?
The binding was “no binding”.

What about the binding [4] of the same binder?
The binding was “no binding”.
